Test results reported in the supplement of paper PMC7826260.
The other results are listed elsewhere or left out. The data describe in vitro nicking of single-stranded DNA by Rep domains (3 µM enzyme, 1 h, 37 °C); shown is the middle of each 90-letter strand. Values are log2 of uncut reads against the no-enzyme pool; strong cutting gives strongly negative numbers. There is no active / inactive call. Shares of all reads are compared; uncut strands gain when others are lost, and binding without cutting may add a little.

System: T1, Rep nickase domain of tomato golden mosaic virus
T1 sequence (residues 1-124, tag not shown): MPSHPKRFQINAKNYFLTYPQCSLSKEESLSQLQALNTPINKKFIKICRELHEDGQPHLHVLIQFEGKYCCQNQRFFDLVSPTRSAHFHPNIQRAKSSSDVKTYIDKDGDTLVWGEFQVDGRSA
Assay: uncleaved DNA left, log2 of reads against the no-enzyme library (log2 ratio); higher = less cleavage (more negative = more Rep cleavage of the k-mer); sequences stand for … in CTCGTCCG…ACCGGAGA
Method: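 A pool of 90-nt single-stranded DNAs with seven random bases just before the constant AC of the nick site (name = the seven bases) was cut by 3 µM recombinant His6-SUMO-tagged Rep nickase domain (300 nM DNA, 50 mM HEPES pH 8.0, 50 mM NaCl, 1 mM MnCl2, 1 h, 37 °C, three replicates). Uncut DNA was amplified and sequenced.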

Sequence | uncleaved DNA left (log2)
AACGAGT | 0.221
TCGCGGC | -0.11
CGCTCGA | -0.122
CAAGCCG | -0.0698
AATGCGC | -0.101
TGAAAGA | 0.165
ACCTGCG | -0.111
CGTTCTG | -0.101
AACTAAC | -0.0751
GGGAGAC | -0.0335
AACACCG | 0.0498
TTGTACT | -0.212
AAAGTAC | 0.0449
GCGTCGG | 0.23
GTCACGG | 0.177
ACAATGT | 0.0362
GTCCTTG | 0.123
GGGATCT | -0.116
CCTCTCC | -0.136
GTATGGA | 0.0634

Sequence | uncleaved DNA left (log2)
GGTTAGA | 0.0798
TCGTAGA | -0.0016
ACGCCAC | -0.192
TAGCCTG | -0.0789
ATGGATA | 0.147
ACGTTCC | 0.154
TTTCGAG | 0.0721
AGATGAG | -0.00978
CCACATC | -0.0943
GTACTCC | -0.122
CGCAAAT | -0.107
CAGTGGA | 0.0457
ACCTTCC | -0.0699
CCTCTTG | 0.00487
CTCTTTG | -0.114
AAGCCGG | 0.00975
CTGACTG | -0.0515
GTGAGAT | 0.223
GGATCTT | -0.089
GGACCGA | 0.108
